Patent publication US7087375B1, “Method for determining the mechanism of HIV RT inhibitors” (priority 2000, dated 2006)
Where “and” joins values, the source holds several entries; their conditions need not be identical. Equal values may be shown once.

Tests used:
[1] = tested on: HXB2 site-directed mutant M41L, D67N, K70R, M184V, L210W, R211K, L214F, T215Y; type: cell-based; settings: virus M41L
[2] = tested on: HXB2 site-directed mutant M41L, T69S-AG, L210W, R211K, L214F, T215Y; type: cell-based; settings: virus M41L
[3] = tested on: HXB2 site-directed mutant M41L, D67N, K70R, T215Y; type: cell-based; settings: virus M41L
[4] = tested on: HXB2 site-directed mutant M41L, T69S-SG, L210W, R211K, L214F, T215Y; type: cell-based; settings: virus M41L
[5] = tested on: HXB2 site-directed mutant M41L, T69S-SS, L210W, R211K, L214F, T215Y; type: cell-based; settings: virus M41L
[6] = tested on: HIV-1 with RT mutations D67N, K70R, T215F, K219Q; settings: cited from earlier work
[7] = target: HIV-1 RT with mutations D67N, K70R, T215F and K219Q (Human immunodeficiency virus type 1 group M subtype B, UniProt P04585, D654N/K657R/K806Q/T802F); settings: with PPi; cited from earlier work

Row | Compound | Fold resistance in IC50 relative to HXB2 [1] | Fold resistance in IC50 relative to HXB2 [2] | Fold resistance in IC50 relative to HXB2 [3] | Fold resistance in IC50 relative to HXB2 [4] | Fold resistance in IC50 relative to HXB2 [5] | increase in IC50 observed with the virus [6] [fold] | higher IC50 of mutant RT vs wild type [7] [fold]
1 | Nc1ccn([C@@H]2CS[C@H](CO)O2)c(=O)n1 [3TC, lamivudine] | >129 fold | 10.1 fold | 2.5 fold | 20.3 fold | 7.4 fold | – | –
2 | Cc1cn([C@H]2C[C@H](N=[N+]=[N-])[C@@H](CO)O2)c(=O)[nH]c1=O [AZT, zidovudine] | 16 fold and 16.0 fold and 16.0 (+/−2) fold | > 96 fold | 24 fold and 24.1 fold and 24.1 (+/−14) fold | > 96 fold | > 111 fold and >67 fold | 100 | –
3 | Nc1nc(NC2CC2)c2ncn([C@H]3C=C[C@@H](CO)C3)c2n1 [Abacavir, abacavir] | 10.4 fold | 13.2 fold | 1.4 fold | 12.0 fold | 10.3 fold | – | –
4 | Cc1cn([C@H]2C=C[C@@H](CO)O2)c(=O)[nH]c1=O [d4T, stavudine] | 4.0 fold and 4.0 +/− 1.3 fold | 17.7 fold and 17.1 +/− 0.6 fold | 4.1 fold and 4.1 +/− 1.3 fold | 8.3 fold and 8.3 +/− 1.8 fold | 3.3 fold | – | –
5 | Nc1ccn([C@H]2CC[C@@H](CO)O2)c(=O)n1 [ddC, zalcitabine] | 7.7 fold | 3.0 fold | 0.8 fold | 4.8 fold | 2.4 fold | – | –
6 | O=c1[nH]cnc2c1ncn2[C@H]1CC[C@@H](CO)O1 [ddI, didanosine] | 8.7 fold | 6.5 fold | 0.9 fold | 4.4 fold | 3.4 fold | – | –
7 | AZT-TP | – | – | – | – | – | – | 3
